Laboratory results taken from the supplement of paper PMC10681739.
The full ranking holds about 2,700 sequences; the median of “arbitrary fluorescence units” is about 4,100, and the highest 2% start at about 54,000. The list shows a part of the results.

Biological target: T1, ETS1 (UniProt P14921)
T1 sequence: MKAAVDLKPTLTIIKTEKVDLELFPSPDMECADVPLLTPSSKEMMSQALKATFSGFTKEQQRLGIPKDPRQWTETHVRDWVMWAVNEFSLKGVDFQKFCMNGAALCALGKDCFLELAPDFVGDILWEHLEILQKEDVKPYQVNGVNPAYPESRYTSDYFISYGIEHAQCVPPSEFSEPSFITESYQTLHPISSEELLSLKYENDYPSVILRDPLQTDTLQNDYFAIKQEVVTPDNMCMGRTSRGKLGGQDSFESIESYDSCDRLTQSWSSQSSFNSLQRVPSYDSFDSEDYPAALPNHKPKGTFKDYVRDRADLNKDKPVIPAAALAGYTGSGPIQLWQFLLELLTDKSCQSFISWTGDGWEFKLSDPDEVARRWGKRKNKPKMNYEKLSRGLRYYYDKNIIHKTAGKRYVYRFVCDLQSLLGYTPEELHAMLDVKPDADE
Assay: ETS1 binding intensity (PBM fluorescence) (arbitrary fluorescence units); higher = stronger binding
Conditions: ETS1 concentration 10 nM
Procedure: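 gcPBM on wild-type 36-bp genomic probes with two neighbouring ETS1 sites (4-24 bp apart). Recombinant human ETS1 (10 nM) was detected with anti-ETS1 antibody fluorescence. Values are medians over 3 replicate spots. The probes sit in constant array flanks that are not printed.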

Which ETS1 binding intensity does the source give for GCGAACACGTCGGAACAGTGACTTCCGGCGGAAGAA here?
Its ETS1 binding intensity is 12700.

With CCTCCGGAAGTAGTGGGTTCCCATGGCCGGAAGTGT as the sequence, how does the ETS1 binding intensity read?
Its ETS1 binding intensity is 17300.

For ATTTTGCAGAGGAGGAAACGGAAATTCAGAGAAGTA, which ETS1 binding intensity is on record?
Its ETS1 binding intensity is 819.

How did the ETS1 binding intensity turn out when TCTGAAGACAGGAAGCTGCCTCAGGAAGCAATGATC was run?
The ETS1 binding intensity was 6380.

For TCACTTCCCCTGAAGCTTATTTTGCCTCTTCCTGTG, which ETS1 binding intensity is on record?
Its ETS1 binding intensity is 8490.

Which ETS1 binding intensity does the source give for GAGGTGCGGATAGGGACTCTTTACCGGAAGTCGGAG here?
The ETS1 binding intensity was 4550.

Which ETS1 binding intensity does the source give for TGTAATCACAGGAAGTTGAACAGGATGTGAGGAGAT here?
The ETS1 binding intensity was 7760.

How did the ETS1 binding intensity turn out when GATAACTTCCGCTGTCCGCACCCCACTTCCGCCCCG was run?
Its ETS1 binding intensity is 36200.

How did the ETS1 binding intensity turn out when CAAACCAGCCGGAAGCGACATCTTCCGGTTGCTACA was run?
The ETS1 binding intensity was 19000.

With GTATCCAGGATGTGGTAGTCTCACCGGAAGGAGCCA as the sequence, how does the ETS1 binding intensity read?
The ETS1 binding intensity was 4490.

For TGAGCGCCGTGCCTTCCGGGTTCCGCCCTCCTGGGT, which ETS1 binding intensity is on record?
Its ETS1 binding intensity is 1430.

How did the ETS1 binding intensity turn out when ACAGCTTCCGGTTTTGCAAGACAATGCTTCCTTCTC was run?
The ETS1 binding intensity was 87800.

TTACTCACCGGATGTCTGCCCTGCGGATACATGGCA was tested. Which ETS1 binding intensity did it give?
Its ETS1 binding intensity is 15600.

For GGGAGTGAGGGGGAAACGGCAGGATGAAGTTCGCCG, which ETS1 binding intensity is on record?
The ETS1 binding intensity was 283.

ATCTGTTTCCTAAACAAATGGCTACAGGATATGATT was tested. Which ETS1 binding intensity did it give?
The ETS1 binding intensity was 446.

For AGGGGCGGGGCATCCGTCGCCGGAAGCCTGTACCGT, which ETS1 binding intensity is on record?
The ETS1 binding intensity was 2810.

With ACACTTTCTGACTTCCTGTCTTCCTGAAACAATTAC as the sequence, how does the ETS1 binding intensity read?
The ETS1 binding intensity was 30600.

With CTCAACTTCCGGAGGCGGCAGACTTTTTCCGTCAAG as the sequence, how does the ETS1 binding intensity read?
Its ETS1 binding intensity is 36700.

With GTCCCCGGAAGCGCCCTGAGAGCCACTTCCGGGCCG as the sequence, how does the ETS1 binding intensity read?
Its ETS1 binding intensity is 10400.

With ACACCAGGATGAGGTTAGACCACTGTTTCCTGTAAA as the sequence, how does the ETS1 binding intensity read?
The ETS1 binding intensity was 704.

With CCGGCCAATGCATTTCCTCTTCCGTCCATGTAATTC as the sequence, how does the ETS1 binding intensity read?
Its ETS1 binding intensity is 8260.

How did the ETS1 binding intensity turn out when GGGTCCGGAAGCACCATGGACCCCCGGGGAAACGCG was run?
The ETS1 binding intensity was 4070.

For GACCCAGGAAGCACCCGGGCCGTGGCTTCCTGTGAA, which ETS1 binding intensity is on record?
The ETS1 binding intensity was 2090.

Which ETS1 binding intensity does the source give for TATTCAAAGCCCACTTCCTTCCTGTAGCATTCATTC here?
Its ETS1 binding intensity is 6220.

With TGCAGGATGTATTGGTACAGGCAGCTACGGAAAATA as the sequence, how does the ETS1 binding intensity read?
The ETS1 binding intensity was 402.

How did the ETS1 binding intensity turn out when TCTCCCTTTCCTGTTGATCATTTCTCTTCCTGTGTT was run?
The ETS1 binding intensity was 8220.

Which ETS1 binding intensity does the source give for ACGTTTTCCTGACATTTAAAAATGTCATTTCCTGTG here?
The ETS1 binding intensity was 7200.

How did the ETS1 binding intensity turn out when AGTAGTTTCCTGCTTTAGTCTAGCCACATCCTCAGC was run?
Its ETS1 binding intensity is 21500.

Which ETS1 binding intensity does the source give for AGTGTTCCAGGAAGCAGAGGACAGGAAGCATTCTGT here?
Its ETS1 binding intensity is 1740.

TAAAAACTACGTTTCCCAGCTTCCTTTGCAGTGAGG was tested. Which ETS1 binding intensity did it give?
The ETS1 binding intensity was 230.

ATGCAGAAAGTGGGAAGTGAGGAAATGAGGGCAGCG was tested. Which ETS1 binding intensity did it give?
Its ETS1 binding intensity is 232.

With GATAACATTTCCCCAGAGATCACAGGAAGCTGCGCA as the sequence, how does the ETS1 binding intensity read?
The ETS1 binding intensity was 566.

For GAATGCTCATCCTGCTGCTTTCTGTTTCCTGCCTGG, which ETS1 binding intensity is on record?
The ETS1 binding intensity was 4710.

For CATCATTATTTCTTCCGCTGGGAAGTGTCTGCTGAG, which ETS1 binding intensity is on record?
The ETS1 binding intensity was 1060.

GCAAACATCCTGTCATAAAAAGACAAGGATGTTGCA was tested. Which ETS1 binding intensity did it give?
Its ETS1 binding intensity is 39900.

How did the ETS1 binding intensity turn out when TCTACGGAAGTGCGCCGCAGTCCGCCAGTTCCGGCC was run?
Its ETS1 binding intensity is 3130.

With AATGCCTCTTCCTGTTGAGGCCACTTCCCTTCTAGG as the sequence, how does the ETS1 binding intensity read?
Its ETS1 binding intensity is 17900.

GGGCGCAAGGAAGCCGGGGTCCTTTTCCGCTGCGCC was tested. Which ETS1 binding intensity did it give?
The ETS1 binding intensity was 340.

Which ETS1 binding intensity does the source give for CACAGAATTATTTCCTTAGCCAGGATGCAGCTTCAG here?
Its ETS1 binding intensity is 741.

How did the ETS1 binding intensity turn out when AGAACAGGAAACACTGTTGAGGGGACGGAAAGAGCA was run?
Its ETS1 binding intensity is 6190.

How did the ETS1 binding intensity turn out when TTCTTGGCCACATCCGTCTCCCGGAACTGCTCCTTC was run?
The ETS1 binding intensity was 8980.

Which ETS1 binding intensity does the source give for AGGCCATTTCCGTCGGGTCAGCGATTTCCGCCTTCG here?
The ETS1 binding intensity was 18500.

For GCACCTGCCGTTTCCTGCCCCAGGATGGTGTCCCCA, which ETS1 binding intensity is on record?
Its ETS1 binding intensity is 23200.

Which ETS1 binding intensity does the source give for TCAAGGCCACTTCCTGTGTGACCTTCCTGCTCCTGG here?
Its ETS1 binding intensity is 38700.

GCTGCAGCCAACAGGATGGGGGAAATGATATCTCGT was tested. Which ETS1 binding intensity did it give?
Its ETS1 binding intensity is 538.

How did the ETS1 binding intensity turn out when GTTTACGTAGGGAGGAAGCAGGATGTATAAAGCCCA was run?
Its ETS1 binding intensity is 893.

ATCTCACCTTCCTGGTGTCTGGGCTTCCGCAGCTTC was tested. Which ETS1 binding intensity did it give?
The ETS1 binding intensity was 662.

With GTCACTTCCGGCAGCCGGAGGCAGCAGAGGAAGCCG as the sequence, how does the ETS1 binding intensity read?
The ETS1 binding intensity was 71500.

For CTGAGCCACAGGAAACTCAAGCTTCCTTGTAACACT, which ETS1 binding intensity is on record?
Its ETS1 binding intensity is 1560.

With TGCAACATCCTTTGAAATCTAGAAAGAGGAAGTAAT as the sequence, how does the ETS1 binding intensity read?
The ETS1 binding intensity was 7480.

With GCCTGGGAGGATGTCGCTAGGAGAGGAAGCCCAGCC as the sequence, how does the ETS1 binding intensity read?
The ETS1 binding intensity was 863.

GCAAAACCCCAGCATCCTGTTTCCTCTGCTGACCCA was tested. Which ETS1 binding intensity did it give?
Its ETS1 binding intensity is 15700.

With TGTGCTTCCTCTCTTTGGGAAGGCACAGGATGCCAC as the sequence, how does the ETS1 binding intensity read?
The ETS1 binding intensity was 7810.

TGCAAGCTCTCACTTCCCCTTCCTGTACAGGGCAGG was tested. Which ETS1 binding intensity did it give?
Its ETS1 binding intensity is 4240.

With TGAAAGAAACTTCCCACAGGCAGGAAGTTCAGGGAC as the sequence, how does the ETS1 binding intensity read?
Its ETS1 binding intensity is 2470.

With TTGCCGGAAACGTAAAAGACAGGGACCGGAACTGAA as the sequence, how does the ETS1 binding intensity read?
The ETS1 binding intensity was 6470.

Which ETS1 binding intensity does the source give for GCGCAGCAGCAGGAAGTGGGAGGAAATGCATCTGCT here?
Its ETS1 binding intensity is 7930.

With CCACAGGAAATTGGTGGGCTAGAGCACAGGAAAAAG as the sequence, how does the ETS1 binding intensity read?
Its ETS1 binding intensity is 5150.

GGCAGGAAGTGAATGAAGACAAACACAAGGAAATAA was tested. Which ETS1 binding intensity did it give?
The ETS1 binding intensity was 6160.

Which ETS1 binding intensity does the source give for TGACCGTTTGGCGGATGCGCAGGAAGCGGCCGCGCT here?
Its ETS1 binding intensity is 1510.

CCAGCCGACTTCCGGGGTGGGGCTTCCTGCCGCAGA was tested. Which ETS1 binding intensity did it give?
The ETS1 binding intensity was 44500.

TGGGGTTTCCTGGGGTGTTCTGTCTACATCCTGAGA was tested. Which ETS1 binding intensity did it give?
Its ETS1 binding intensity is 5150.

For CGGACTTCCGGGGTCAAAAAGCACGACCTTCCGGGA, which ETS1 binding intensity is on record?
Its ETS1 binding intensity is 51600.

GCTTCAAACATCCTTGAAAAACAGGATGTCTCTTAA was tested. Which ETS1 binding intensity did it give?
Its ETS1 binding intensity is 3280.

With GGTAAGACACAGGAAAACGTGCTTCCGGTTCTCGGC as the sequence, how does the ETS1 binding intensity read?
The ETS1 binding intensity was 16500.

TGTGCCTTGGCTTCCTTCGCCAGGAAATGCGAGTGA was tested. Which ETS1 binding intensity did it give?
The ETS1 binding intensity was 796.

For TGTGTTTCCTGAGGCCTTTCAGCCATGCTTCCTGTA, which ETS1 binding intensity is on record?
The ETS1 binding intensity was 5030.

How did the ETS1 binding intensity turn out when AAAGTTCAGGAAACTAGTTCTTCAGGATGTGGGCAG was run?
Its ETS1 binding intensity is 329.

With GCCCGTCGGAGACTTCCGCTTCCGGGGCCGCCGCCA as the sequence, how does the ETS1 binding intensity read?
The ETS1 binding intensity was 44100.

GCAGAAGCAGGAAGAGAGCTGGCCGGAAGACACTTA was tested. Which ETS1 binding intensity did it give?
The ETS1 binding intensity was 2260.

For TGAATCATTTCCGCCTGCCCTTGCTTTCCGCCTTCT, which ETS1 binding intensity is on record?
Its ETS1 binding intensity is 23700.

How did the ETS1 binding intensity turn out when AATGCTTCCCGGTATTTAACATTTCACTTCCTGACA was run?
The ETS1 binding intensity was 2770.

With ATGAAGAAGGAAGTGGGTTAGCTCAGGAAATGAATA as the sequence, how does the ETS1 binding intensity read?
Its ETS1 binding intensity is 1290.

Which ETS1 binding intensity does the source give for TGGCTGCATCCTGAACGGCGCCTCCCGGAACCCGGC here?
Its ETS1 binding intensity is 2530.

GCCCGGCTTCCGGGGCTGCCCTGCCTTCCGCAGCGT was tested. Which ETS1 binding intensity did it give?
Its ETS1 binding intensity is 17700.

Which ETS1 binding intensity does the source give for GACGGCGCGGCTGCGGAACTTCCGGTCCGTGCTCGT here?
The ETS1 binding intensity was 41700.

How did the ETS1 binding intensity turn out when GAGCACGACTTCCGGCCTGAAAAGGAAGTCTCCTCC was run?
The ETS1 binding intensity was 89000.

With TGTTATTGGACAACTTCCAGGAAAACATCCTCAAGA as the sequence, how does the ETS1 binding intensity read?
Its ETS1 binding intensity is 273.

How did the ETS1 binding intensity turn out when CTTCACATCCTCTCGAGCACCTGTTGTTTCCTGACT was run?
The ETS1 binding intensity was 11100.

How did the ETS1 binding intensity turn out when GCCCGCCGGGAGCGGAAGCGGAAGCGGCGAGTCTCC was run?
Its ETS1 binding intensity is 7840.
